Data reported in the RNAGym collection of RNA variant scans (doi:10.1093/nar/gkz1192).
The source gives no read counts; variants with many changes may rest on few reads.

B1: CPEB3 Ribozyme (parent)
chain: UAACAGGGGGCCACAGCAGAAGCGUUCACGUCGCAGCCCCUGUCAGAUUCUGGUGAAUCUGCGAAUUCUGCUGUAUAUCUC

Variants of: B1
Test: self-cleavage, relative activity (ratio to wild type); higher = more cleavage; in vitro, sequencing
In short: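 Libraries of CPEB3 self-cleaving ribozyme mutants came from rounds of error-prone PCR and carried barcodes, which DNA sequencing matched to variants. In vitro transcription used T7 RNA polymerase at 37°C for 5 hours, with a further 15 min in DNase I before EDTA stopped the reaction; the ribozymes cleaved during both steps. The RNA was reverse transcribed with template switching and sequenced on Illumina. Relative activity is the cleaved/total read fraction of a variant divided by that of the unmutated ribozyme, averaged over three batches with at least 5 reads.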

Q: Which self-cleavage does the source give for UAACAGGGGGCCACAGCAGAAGCGCUCACGUCGCGGCCCCUGUCAGAUCCUGGUGAAUCUGCGAAUUCUGCUGUAUAUCUC [U25C A35G U49C] here?
A: The self-cleavage was 0.42.

Q: Which self-cleavage does the source give for UAACAGGGGGCCACAGCAGAAGCGCUCACGUCGCAGCCCCUGUCGGGUUCUGGUGAAUCUGCGAAUCCUGCUGUGUAUCUC [U25C A45G A47G U67C A75G] here?
A: Its self-cleavage is 0.1.

Q: Which self-cleavage does the source give for UAACAGGGGGCCACAGCAGAAGCGCUCACGUCGCAGCCCCUGUCAGAUUCUGGUGAAUCUGCGCACUCCGCUGUAUAUCUC [U25C A64C U66C U69C] here?
A: The self-cleavage was 0.14.

Q: For UAACAGGGGGCCACAGCAGAAGCGCUCACGUCGCAGCCCCUGUCGGAUACUGGUGAAUCUGCGAAUUCUGCCGUAUAUCUC [U25C A45G U49A U72C], which self-cleavage is on record?
A: The self-cleavage was 0.39.

Q: With UAACAGGGGGCCACAGCAGAAGCGCUCGCGUCGCAGCCCCUGUCAGAUUCAGGUGAAUCUGCGAAUUCUGCCGUAUACCUC [U25C A28G U51A U72C U78C] as the variant, how does the self-cleavage read?
A: The self-cleavage was 0.21.

Q: With UAACAGGGGGCCACAGCAGAAGCGCUCGCGUCGCAGCCCCUGUCAGAUUCUGGUGAAUCUGCGAACUCUGCUGUAUAUCUC [U25C A28G U66C] as the variant, how does the self-cleavage read?
A: Its self-cleavage is 0.2.

Q: Which self-cleavage does the source give for UAACAGGGGGCCACAGCAGAAGCGCUCACGUCGCUGCCCCUGUCAGAUUCUGGUGCAUCUGCGAAUUCUGCUGUAUAUCUC [U25C A35U A56C] here?
A: The self-cleavage was 0.09.

Q: For UAACAGGGGGCCACAGCAGAAGCGCUCUCGUCGCAGCCCCUGCCAGAUUCUGGUGGGUCUGCGAAAUCUGCUGUAUAUCCC [U25C A28U U43C A56G A57G U66A U80C], which self-cleavage is on record?
A: Its self-cleavage is 0.15.

Q: With UAACAGGGGGCCACAGCAGAAGCGAUCACGUCGCAGCCCCUGUCAGAUUCUGGUGAAUCCGCGAAUUCUGCUGCAUAUCUC [U25A U60C U74C] as the variant, how does the self-cleavage read?
A: The self-cleavage was 0.1.

Q: With UAACAGGGGGCCACAGCAGAAGCGCUCACGUCGCAGCCCCUGUCAGAUUCUGGUGAAUCUGCGGAUUCUGCUGUAUAUCAC [U25C A64G U80A] as the variant, how does the self-cleavage read?
A: The self-cleavage was 0.26.

Q: For UAACAGGGGGCCACAGCAGAAGCGCUCACGUCGCGGCCCCUGUCAGAUUCUGGUGAAUCUGCGGAUUCUGCUGUAUACCUC [U25C A35G A64G U78C], which self-cleavage is on record?
A: The self-cleavage was 0.12.

Q: For UAACAGGGGGCCACAGCAGAAGCGCUCACGUCGCAGCCCCUGUCAGUUCCUGGUGAAUCUGCGAAUACUGCUGUAUAUCUC [U25C A47U U49C U67A], which self-cleavage is on record?
A: Its self-cleavage is 0.11.

Q: With UAACAGGGGGCCACAGCAGAAGCGCUCGCGUCGCAGCCCCUGUCAGAUUCUGGUGAAUCAGCGAAUUCUGCUGUAUAUCUC [U25C A28G U60A] as the variant, how does the self-cleavage read?
A: The self-cleavage was 0.23.

Q: Which self-cleavage does the source give for UAACAGGGGGCCACAGCAGAAGCGCUCACGUCGCUGCCCCUGUCAGGUUCUGGAGAAUCUGCGAAUUCUGCUGUAUAUCUC [U25C A35U A47G U54A] here?
A: Its self-cleavage is 0.43.

Q: For UAACAGGGGGCCACAGCAGAAGCGCUCACGUCGCGGCCUCUGUCAGAUUCUGGUGAAUCUGCGAAUUCUGCUGUAUAUCUC [U25C A35G C39U], which self-cleavage is on record?
A: Its self-cleavage is 0.24.

Q: With UAACAGGGGGCCACAGCAGAAGCGAUCACGUCGCAGCCCCUGUCAGAUUCUGGUGAAUCUGCGAAUUCUGCUGUACAACUC [U25A U76C U78A] as the variant, how does the self-cleavage read?
A: The self-cleavage was 0.2.

Q: Which self-cleavage does the source give for UAACAGGGGGCCACAGCAGAAGCGCUCACGUCGCAGCCCCUGUCAGAUUCUGGUGGAUCUGCGAAUUCUGCUGUAUAUCCC [U25C A56G U80C] here?
A: Its self-cleavage is 0.28.

Q: For UAACAGGGGGCCACAGCAGAAGCGCUCACGUCGCAGCCCCUGUCAGUUUCUGGUGUAUCUGCGAAUUCUGCUGUAUAUCUC [U25C A47U A56U], which self-cleavage is on record?
A: The self-cleavage was 0.14.

Q: For UAACAGGGGGCCACAGCAGAAGCGCUCACGUCGCAGCCCCUGUCUGAUUCUGGCGGAUCUGCGGAUUCUGCUGUAUAUCUC [U25C A45U U54C A56G A64G], which self-cleavage is on record?
A: The self-cleavage was 0.3.

Q: Which self-cleavage does the source give for UAACAGGGGGCCACAGCAGAAGCGCUCGCGUCGCAGCGCCUGUCAGAUUCAGGUGAACCUGCGAAUUCUGCUGUAUAUCUC [U25C A28G C38G U51A U58C] here?
A: The self-cleavage was 0.07.

Q: For UAACAGGGGGCCACAGCAGAAGCGCUCACGUCGCUGCCCCUAUCAGAUUCUGUUGAAUCUGCGAAUUCUGCUGUAUAUCUC [U25C A35U G42A G53U], which self-cleavage is on record?
A: The self-cleavage was 0.19.

Q: With UAACAGGGGGCCACAGCAGAAGCGCUCACGUCGCAGCCCCUGUCCGAUUCCGGAGAAUCUGCGAAUUCUGCUGUAUAUCUC [U25C A45C U51C U54A] as the variant, how does the self-cleavage read?
A: Its self-cleavage is 0.47.

Q: With UAACAGGGGGCCACAGCAGAAGCGCUCACGUCGCUGCCCCUGUCAGGUUCUGGCGAAUCUGCGAACUCUGCUGUAUAUCUC [U25C A35U A47G U54C U66C] as the variant, how does the self-cleavage read?
A: The self-cleavage was 0.1.

Q: With UAACAGGGGGCCACAGCAGAAGCGCUCACGUCGCAGCCCCUGUCAGAUUCUGGUGAGUCUGCGAAUUCUGCUGUAUGUCUC [U25C A57G A77G] as the variant, how does the self-cleavage read?
A: The self-cleavage was 0.28.

Q: For UAACAGGGGGCCACAGCAGAAGCGAUCACGUCGCAGCCCCUGUCAGAUUCCGGUGAAUCUGCGAAUUCCGCCGUAUAUCUC [U25A U51C U69C U72C], which self-cleavage is on record?
A: The self-cleavage was 0.12.

Q: Which self-cleavage does the source give for UAACAGGGGGCCACAGCAGAAGCGAUCACGUCGCAGCCCCUGUCAGAUUCUGGUGAAUCUGCGAAUUCUGCGGUACAUCUC [U25A U72G U76C] here?
A: The self-cleavage was 0.12.

Q: Which self-cleavage does the source give for UAACAGGGGGCCACAGCAGAAGCGCUCACGUCGCAGCCCCUGUCGGGUUCUGGUGAAUCUGCGGAUUCUGCUGUAUAUCUC [U25C A45G A47G A64G] here?
A: The self-cleavage was 0.22.

Q: For UAACAGGGGGCCACAGCAGAAGCGAUCACGUCGCAGCCCCUGUCAGAUUCAGGAGAUUCUGCGGAUUCUGCUGCAUCUCUC [U25A U51A U54A A57U A64G U74C A77C], which self-cleavage is on record?
A: The self-cleavage was 0.08.

Q: With UAACAGGGGGCCACAGCAGAAGCGCUCGCGUCGCAGCCCCUGUCAGAUUCUGGGGAAUCUGCGAAUUCUGCUGUAUAUCUC [U25C A28G U54G] as the variant, how does the self-cleavage read?
A: Its self-cleavage is 0.11.

Q: Which self-cleavage does the source give for UAACAGGGGGCCACAGCAGAAGCGCUCACGUCGCGGCCCAUGUCAGACUCUGGUGAAUCUGCGGAUUCUGCUGCAUAUCUC [U25C A35G C40A U48C A64G U74C] here?
A: The self-cleavage was 0.11.

Q: Which self-cleavage does the source give for UAACAGGGGGCCACAGCAGAAGCGCUCGCGUCGCAGCCCCUGUCGGAUUCUGGUGAAUCUGCGAAUUCUGCUGUAUAUCUC [U25C A28G A45G] here?
A: The self-cleavage was 0.29.

Q: Which self-cleavage does the source give for UAACAGGGGGCCACAGCAGAAGCGCUCACGUCGCAGCCCCUGUCAGUUUCUGGCGAAUCUGCGAAUUCUGCUGUAUAUCUC [U25C A47U U54C] here?
A: The self-cleavage was 0.13.

Q: For UAACAGGGGGCCACAGCAGAAGCGCUCACGUCGCAGCCCCUGUCGGACUCUGGUGAAUCUGCGAAUUCUGCUGUAUAUCUC [U25C A45G U48C], which self-cleavage is on record?
A: The self-cleavage was 0.32.

Q: Which self-cleavage does the source give for UAACAGGGGGCCACAGCAGAAGCGCUCACGUCGCGGCCCCUGCCAGAUUCUGGUGAAUCUGCGAAUUCUGCCGUAUAUCUC [U25C A35G U43C U72C] here?
A: The self-cleavage was 0.26.
